Values belong to the binder of their own block, whether it stands above or below them.
Target: equal amounts of hIL-1α and hIL-1β added together
Assay: cell-based or functional assay

dual-inhibition activity, IL-8 synthesis by MRC-5 cells with both hIL-1α and hIL-1β present: 2.2 nM
B1: hIL-1a/bDVD1-Ig (bispecific antibody, human IgG1, kappa)
heavy: QVQLQQSGAELVRPGSSVKISCKASGYAFSSYWMNWVKQRPGQGLEWIGQIYPGDGDTNYNGKFKGKATLTADKSSSTSYMQLSGLTSEDSAMYFCVRFPTGNDYYAMDYWGQGTSVTVSSQIQLVQSGPELKKPGETVKISCKASGYTFRNYGMNWVKQAPGKDLKRMAWINTYTGESTYADDFKGRFAFSLETSASTAYLQINNLKNEDTATYFCARGIYYYGSSYAMDYWGQGTSVTVSS[no letters for human IgG1 constant region]
light: NIVLTQSPASLAVSLGQRATISCRASESVDSYGNSYMHWYQQKPGQPPKLLIYLASNLESGVPARFSGSGSRTDFTLTIDPVEADDAATYYCQQNNEDPFTFGSGTKLEIKRNIQMTQTTSSLSASLGDRVTISCRASQDISNCLNWYQQKPDGTVKLLIYYTSRLHSGVPSRFSGSGSGTDYSLTISNLEQEDIATYFCQQGKTLPYAFGGGTKLEINRTVAAPSVFIFPPSDEQLKSGTASVVCLLNNFYPREAKVQWKVDNALQSGNSQESVTEQDSKDSTYSLSSTLTLSKADYEKHKVYACEVTHQGLSSPVTKSFNRGEC

dual-inhibition activity, IL-8 synthesis by MRC-5 cells with both hIL-1α and hIL-1β present: 1.2 nM
B2: hIL-1a/bDVD2-Ig (bispecific antibody, human IgG1, kappa)
heavy: QVQLQQSGAELVRPGSSVKISCKASGYAFSSYWMNWVKQRPGQGLEWIGQIYPGDGDTNYNGKFKGKATLTADKSSSTSYMQLSGLTSEDSAMYFCVRFPTGNDYYAMDYWGQGTSVTVSSAKTTPPQIQLVQSGPELKKPGETVKISCKASGYTFRNYGMNWVKQAPGKDLKRMAWINTYTGESTYADDFKGRFAFSLETSASTAYLQINNLKNEDTATYFCARGIYYYGSSYAMDYWGQGTSVTVSS[no letters for human IgG1 constant region]
light: NIVLTQSPASLAVSLGQRATISCRASESVDSYGNSYMHWYQQKPGQPPKLLIYLASNLESGVPARFSGSGSRTDFTLTIDPVEADDAATYYCQQNNEDPFTFGSGTKLEIKRADAAPNIQMTQTTSSLSASLGDRVTISCRASQDISNCLNWYQQKPDGTVKLLIYYTSRLHSGVPSRFSGSGSGTDYSLTISNLEQEDIATYFCQQGKTLPYAFGGGTKLEINRTVAAPSVFIFPPSDEQLKSGTASVVCLLNNFYPREAKVQWKVDNALQSGNSQESVTEQDSKDSTYSLSSTLTLSKADYEKHKVYACEVTHQGLSSPVTKSFNRGEC
